{"source": "PubChem BioAssay AID588855", "about": "(National Center for Advancing Translational Sciences (NCATS), 2011)", "note": "The whole screen tested about 410,000 compounds, of which about 5,000 (1.2%) were called active. Inconclusive results, whose numbers are uncertain, are shown with a selection of clear calls. Calls come from the whole dose curve; as a rule, active = well fitted inhibition curve with a large enough effect; inconclusive = small, poorly fitted or top-dose-only effect; inactive = no such curve, though single readings can be large or run the other way. A potency beside an inconclusive call is a rough fit, not a confirmed value. Potency is the fitted concentration of half-maximal effect; tags give direction and shape of the fitted curve."}
{"experiment": "qHTS for Inhibitors of TGF-b; note: nearly all actives have a fitted effect of over 65% in size", "details": "HepG2 CAGA-GFP TGF-b/SMAD3 reporter, GFP fluorescence, 18 h, TGF-beta stimulated, 500 pg/mL final; series mostly up to 46.1 µM", "how_it_was_run": "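TGF-beta reporter screen: HEPG2 CAGA-GFP, 1% FBS, 500 pg/mL TGF-beta final, 18 h; per-cell GFP summed per well; curves fitted and categorized by class.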"}
{"smiles": "CCN(CC)CCNC(=O)COc1ccc(OC)cc1", "Potency": "inactive"}
{"smiles": "CCC(=O)N1N=C(c2ccccc2)CC1c1ccc([N+](=O)[O-])cc1", "note": "(stereo not drawn)", "Potency": "inconclusive: 6.31 µM [inhibitor, single point]"}
{"smiles": "COc1ccc(-n2nc(C(=O)N(C)c3cc(Cl)ccc3OC)c3c4ccccc4n(C)c3c2=O)cc1", "Potency": "inactive"}
{"smiles": "Cc1ccc(Cl)cc1N1CCN(Cc2nnnn2C2CCCCC2)CC1", "Potency": "inconclusive: 15.8 µM [inhibitor, single point]"}
{"smiles": "Cc1ccc(NC(=O)COC(=O)C2CC3CCCC(C2)C3=O)c([N+](=O)[O-])c1", "note": "(stereo not drawn)", "Potency": "inactive"}
{"smiles": "O=[N+]([O-])c1ccc(-c2nc(Nc3cccc(O)c3)c3ccccc3n2)cc1", "Potency": "inconclusive: 35.5 µM [inhibitor, single point]"}
{"smiles": "CCN1C(=O)[C@H]2[C@@H](c3ccc(-c4cccc(Cl)c4)c(OC)c3)N3CCCC[C@@]3(C(=O)OC)[C@H]2C1=O", "Potency": "inconclusive: 35.5 µM [inhibitor, single point]"}
{"smiles": "Cc1ccc2sc(NC(=O)C3CC3)nc2c1C", "Potency": "inactive"}
{"smiles": "O=C(O)COc1ccccc1C1C2C(=O)N(c3ccc(F)cc3)C(=O)C2ON1c1ccccc1", "note": "(stereo not drawn)", "Potency": "inconclusive: 35.5 µM [inhibitor, partial curve, poor fit]"}
{"smiles": "Cc1ccccc1CSCc1nc2ccccc2[nH]1", "Potency": "inconclusive: 22.4 µM [inhibitor, partial curve, poor fit]"}
{"smiles": "CCc1ccc2c(c1)/C(=C/C(=O)c1cccs1)C(=O)N2", "Potency": "inconclusive: 25.1 µM [inhibitor, single point]"}
{"smiles": "CCOC(=O)CC[C@H](NC(=O)Cn1cnc(C(=O)Nc2ccc(C)c(C)c2)n1)C(=O)OCC", "Potency": "inconclusive: 35.5 µM [inhibitor, single point]"}
{"smiles": "NC(=O)c1sc2nc3c(c(-c4ccco4)c2c1N)CCC3", "Potency": "inconclusive: 17.8 µM [inhibitor, single point]"}
{"smiles": "NS(=O)(=O)c1ccc(NC(=S)NCc2cccc(Cl)c2)cc1", "Potency": "inconclusive: 35.5 µM [inhibitor, single point]"}
{"smiles": "CC(CNC(=O)C1CCN(C(=O)N2CCOc3ccc(Cl)cc32)CC1)c1ccccc1", "note": "(stereo not drawn)", "Potency": "inconclusive: 11.2 µM [inhibitor, single point]"}
{"smiles": "CN(Cc1ccccc1)c1nc(CN2CCOCC2)nc2scc(-c3ccccc3)c12", "Potency": "inconclusive: 35.5 µM [inhibitor, single point]"}
{"smiles": "COc1ccc(CNC(=O)C2CCCN(S(=O)(=O)c3ccc(Br)s3)C2)cc1", "note": "(stereo not drawn)", "Potency": "inconclusive: 20 µM [inhibitor, single point]"}
{"smiles": "O=C(CN1CCCCCC1)Nc1c(Cl)cc(Cl)cc1Cl", "Potency": "inconclusive: 12.6 µM [inhibitor, partial curve, poor fit]"}
{"smiles": "COc1ccc(Cn2c(C)cc3c(c2=O)C(c2cccs2)C(C#N)=C(N)O3)cc1OC", "note": "(stereo not drawn)", "Potency": "inactive"}
{"smiles": "CN(C)c1nc(NCc2ccccc2)nc(SCC(=O)Nc2ccc(Cl)c(Cl)c2)n1", "Potency": "inconclusive: 35.5 µM [inhibitor, single point]"}
{"smiles": "CC12CCC(=O)C=C1CCC1C2C(O)CC2(C)C(c3csc(N)n3)CCC12", "note": "(stereo not drawn)", "Potency": "inactive"}
{"smiles": "CC(C)C(=O)Nc1ccc(C(=O)N/N=C/c2cc(Br)cc(Br)c2O)cc1", "Potency": "inconclusive: 10 µM [inhibitor, partial curve, poor fit]"}
{"smiles": "COc1ccc(CN2C(=O)c3ccccc3C(/C=N\\OCc3ccc(F)cc3)C2=O)cc1", "note": "(stereo not drawn)", "Potency": "inconclusive: 35.5 µM [inhibitor, partial curve, poor fit]"}
{"smiles": "O=C(NCCCc1nc2ccccc2n1Cc1ccccc1Cl)c1ccco1", "Potency": "inconclusive: 4.47 µM [inhibitor, full curve, poor fit]"}
{"smiles": "Cc1c(Cl)cccc1NC(=O)CC(c1ccc(F)cc1)N1Cc2ccccc2C1=O", "note": "(stereo not drawn)", "Potency": "active: 17.8 µM"}
{"smiles": "O=S(=O)(Nc1c(O)ccc2ccccc12)c1cccc2ccccc12", "Potency": "inconclusive: 35.5 µM [inhibitor, single point]"}
{"smiles": "O=C1CS/C(=N/N=C2CCCC2)N1", "Potency": "inactive"}
{"smiles": "O=C(NCCS(=O)(=O)NCCc1ccccc1)c1ccc2c(c1)OCO2", "Potency": "inactive"}
{"smiles": "O=C(NCc1cc([N+](=O)[O-])ccc1O)c1cccnc1Sc1ccc(Cl)cc1", "Potency": "inconclusive: 22.4 µM [inhibitor, single point]"}
{"smiles": "Fc1ccc(Cn2nnc3ccccc32)cc1", "Potency": "inconclusive: 5.62 µM [inhibitor, single point]"}
{"smiles": "Cc1nn(CCC(=O)NCc2ccc(Cl)cc2)c(=O)c2nn(-c3ccccc3)c(C)c12", "Potency": "inactive"}
{"smiles": "CCCCN(C=O)c1c(CC)nc2c(OCc3ccc(C(F)(F)F)cc3)cccn12", "Potency": "inconclusive: 35.5 µM [inhibitor, partial curve, poor fit]"}
{"smiles": "Cc1ccc(C2CCN(C(=S)Nc3cccc(C)c3)C2)cc1", "note": "(stereo not drawn)", "Potency": "inconclusive: 11.2 µM [inhibitor, partial curve, poor fit]"}
{"smiles": "O=C(CCSCc1cccc(Cl)c1)NCc1ccc(F)cc1Cl", "Potency": "inconclusive: 35.5 µM [inhibitor, single point]"}
{"smiles": "CCc1ccc(Nc2n[n+](-c3ccccc3)c(-c3ccc(N(CC)CC)cc3)s2)cc1", "Potency": "inconclusive: 0.562 µM [inhibitor, partial curve, poor fit]"}
{"smiles": "COc1ccccc1CNC(=O)C1CCCN(c2nnc(C)c3c(C)n(-c4ccccc4)nc23)C1", "note": "(stereo not drawn)", "Potency": "inconclusive: 12.6 µM [inhibitor, single point]"}
{"smiles": "C=CCC[C@@H](Cc1ccc(F)cc1)C(=O)OC[C@@H](Cc1c[nH]c2ccccc12)NC(=O)[C@H](CC=C)CC(=O)NCCO", "Potency": "inconclusive: 35.5 µM [inhibitor, partial curve, poor fit]"}
{"smiles": "COc1ccc(/C=N/NC(=O)c2cc(C)on2)c2ccccc12", "Potency": "inconclusive: 12.6 µM [inhibitor, single point]"}
{"smiles": "COc1ccccc1N1CCN(C(=S)NC(=O)/C=C/c2ccc(F)cc2)CC1", "Potency": "inconclusive: 20 µM [inhibitor, single point]"}
{"smiles": "Cc1cc(-n2c(C)cc(C(=O)CCl)c2C)no1", "Potency": "active: 8.91 µM"}
{"smiles": "COc1ccc(C2CC(c3ccccc3)=NN2C(=O)COC(=O)c2cccc(S(=O)(=O)N3CCOCC3)c2)cc1", "note": "(stereo not drawn)", "Potency": "inconclusive: 3.55 µM [inhibitor, single point]"}
{"smiles": "Cc1ccc(N2CC(C(=O)N3CCOCC3)CC2=O)cc1C", "note": "(stereo not drawn)", "Potency": "inconclusive: 0.398 µM [inhibitor, full curve]"}
{"smiles": "O=C(Nc1cccc(S(=O)(=O)N2CCOCC2)c1)c1cnn2c(C(F)F)cc(-c3ccccc3)nc12", "Potency": "inactive"}
{"smiles": "Cc1cccc(N2CCN(C(=O)CCC(=O)N3CC(C)Oc4ccc(C)cc43)CC2C)c1", "note": "(stereo not drawn)", "Potency": "inconclusive: 20 µM [inhibitor, single point]"}
{"smiles": "CCN1C(=O)c2cccc3c(S(=O)(=O)Nc4ccccc4)ccc1c23", "Potency": "inconclusive: 14.1 µM [inhibitor, single point]"}
{"smiles": "Cc1ccc(NC(=O)CN(C)C(=O)COC(=O)[C@@H](NC(=O)c2ccccc2F)C(C)C)cc1", "Potency": "inconclusive: 12.6 µM [inhibitor, single point]"}
{"smiles": "COc1cc(OC)c2c(-c3cccc(-c4sccc4C(C)=O)c3)cc(=O)oc2c1", "Potency": "inconclusive: 7.08 µM [inhibitor, full curve, poor fit]"}
{"smiles": "CCOC(=O)C1(CCOc2ccccc2)CCN(Cc2cccn2-c2cccnc2)CC1", "Potency": "inconclusive: 17.8 µM [inhibitor, partial curve, poor fit]"}
{"smiles": "C/C(=C1/SC(N2CCCC2)=NC1=O)c1ccc(Br)cc1", "Potency": "inconclusive: 3.98 µM [inhibitor, single point]"}
{"smiles": "Cc1ccc(Cn2ccsc2=NC(=O)COC(=O)c2ccc(NC(=O)CC#N)cc2)cc1", "Potency": "inconclusive: 1.41 µM [inhibitor, full curve, poor fit]"}
{"smiles": "O=C(N/N=C/c1coc2ccccc2c1=O)c1cn(-c2ccccc2)nc1-c1ccccc1", "Potency": "inconclusive: 17.8 µM [inhibitor, single point]"}
{"smiles": "Cc1cccc(C2Nc3ccccc3C(=O)N2CCc2ccccc2)n1", "note": "(stereo not drawn)", "Potency": "inactive"}
{"smiles": "CSc1ccc(C(=O)C2CCCN(C(=O)c3cc(C)n(C)n3)C2)cc1", "note": "(stereo not drawn)", "Potency": "inactive"}
{"smiles": "CCn1ccc2c(OCC(=O)NCc3ccccc3)cccc2c1=O", "Potency": "inactive"}
{"smiles": "C/C=C/c1ccc(OCC(O)CNCCc2ccc(OC)cc2)c(OC)c1", "note": "(stereo not drawn)", "Potency": "inconclusive: 35.5 µM [inhibitor, single point]"}
{"smiles": "C=C1CCC[C@]2(C)C[C@H]3OC(=O)C(CN4CCOCC4)[C@H]3C[C@@H]12", "note": "(stereo partly drawn)", "Potency": "inconclusive: 15.8 µM [inhibitor, single point]"}
{"smiles": "COc1ccc(NS(=O)(=O)c2ccc(N3CCCC3)c(NC(=S)Nc3cccc(C)c3C)c2)cc1", "Potency": "inconclusive: 3.55 µM [inhibitor, partial curve, poor fit]"}
{"smiles": "O=C(C(Cc1ccccc1)n1cccc1)N1CCc2ccccc21", "note": "(stereo not drawn)", "Potency": "inconclusive: 22.4 µM [inhibitor, single point]"}
{"smiles": "CCCN1CCN(c2cc3c(cc2F)c(=O)c(S(=O)(=O)c2ccc(CC)cc2)cn3CC)CC1", "Potency": "inconclusive: 10 µM [inhibitor, single point]"}
{"smiles": "COc1cc(-c2cnc3c(NC=O)cc(-c4ccccc4Cl)cn23)cc(OC)c1OC", "Potency": "inconclusive: 0.794 µM [inhibitor, full curve, poor fit]"}
{"smiles": "CCc1nc2ccc(C(=O)Nc3cc(-c4ccccc4)ccc3OC)cn2c1N(C)Cc1nccs1", "Potency": "inconclusive: 35.5 µM [inhibitor, single point]"}
{"smiles": "CN1CCN(S(=O)(=O)c2cccc(C(=O)Nc3cc(Cl)ccc3N3CCOCC3)c2)CC1", "Potency": "inactive"}
{"smiles": "C[C@H](CO)N1C[C@H](C)[C@@H](CN(C)Cc2ccc(C(=O)O)cc2)Oc2ccc(NC(=O)Cn3cnnn3)cc2C1=O", "Potency": "inactive"}
